Experimental data published in the supplement of paper PMC11417369.
The other results are listed elsewhere or left out.

These sequences were tested on PfAP2-HC AP2 domain (GST-tagged) (assay: gcPBM binding intensity (ln(normalized median fluorescence intensity)); higher = stronger DNA binding).
How it was run: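 DNA-binding domains from P. falciparum, fused to GST and produced in E. coli, were put on an Agilent 4 × 180k double-stranded probe array for 1 h in 1× PBS holding 1% milk, 0.2 mg/ml BSA, 0.5% salmon testes DNA and 0.03% Triton X-100. Probes were primer-extended, 36 bp long and drawn from intergenic genomic regions, with negative controls included. After Alexa488 anti-GST antibody detection and a 488 nm scan, binding intensity was set as the highest Masliner-normalised natural-log median intensity across replicate spots of either probe orientation.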

In order of falling “gcPBM binding intensity (ln)” value:
1. ATAAATATAGGACACACACACATATTATATATATAT [CACACA_site5658]  10.5
2. TATATATATATATACACACACACACCGATATATATA [CACACA_site8813]  10.5
3. GTTTTCTAGTGGGGGTGTACATATTTATATTTAATA [XGTACX_site8378]  10.4
4. CAAAATATATATACCACACACACATACCTCTATTTG [CACACA_site1853]  10.4
5. TATAATATAAGGATCACACACAAACACCCATATATA [CACACA_site4468]  10.4
6. CTAGCAAATACATACACACACACACCGATACAGATA [CACACA_site5853]  10.4
7. AAATGAACAAGTGGCACACACACATCATAACTAATT [CACACA_site5730]  10.3
8. ATCTATGATATATACACACACATGTATAAATAAATA [CACACA_site7012]  10.3
9. AGTATTCATAAAAATACACACATGGAAAAATAAAAT [CACACA_site1454]  10.2
10. AGCCACTTAAAATACACACACACCAAAAAAAAAAAA [CACACA_site5497]  10.2
11. CATACATACATACATACACACATACCTATATTTATA [CACACA_site6769]  10.2
12. TTCACATACAGAAACACACACATATATATAAATTAA [CACACA_site3705]  10.2
13. CACGCGAACATACATACACACACATATATATATATG [CACACA_site7951]  10.1
14. TTGCCCATTTAATTAACACACAAATGTTTATATTCT [CACACA_site6488]  10.1
15. TCCATAAAAATGGATACACACACATAATATATATAT [CACACA_site9207]  10
16. TTAATAACAAAATAAACACACATATATAAATACCCA [CACACA_site4960]  10
17. AATAATATATATTACACACGCATCGTTCATTTATTT [CACACA_site2391]  10
18. TAATTTTTTTTTCTTGTACACACTATTTTATAATTT [CACACA_site4078]  9.99
19. AAATATAATATATGCACACATACATACAGATATATA [CACACA_site4235]  9.91
20. ATATATATATAATAAGTGCAAAAAAAAGAAAAAAAT  9.88
21. ATAATATAAATATGCACACAAATTATTACCCAAAAA [CACACA_site2524]  9.88
22. CATATATTAATATGTACACACATTAATAAAAAAAAA [CACACA_site7504]  9.86
23. AATAATTTCCAAAAATGTACATATATTTACATATAT [XGTACX_site1790]  9.86
24. ATTTATTTGTTTGTTTTTTTTACGATTTTTATTTTT [CACACA_negctrl_site1138]  9.79
25. CGTATTTATATAATTACACACCATATTTTAATTATT [CACACA_site5960]  9.76
26. TAATAAATGTTATTAGTGCATAATAGATAATATATT  9.74
27. AGATATATGGACGACTCACACATTTAAATTCATTCA [CACACA_site6047]  9.74
28. ATTTTAACTCCCCTTAATCTATTGTATATATATATA [CACACA_negctrl_site208]  9.69
29. ATATATACATATATTACACACTTCTTATTCTAAGAA [CACACA_site3022]  9.69
30. ATAAACAATTAACAAACATGCAAATTTTAAATGTGT [TGCATGCA_site919]  9.68
31. TATATAAAAAAACAAAGTACATGTTCTTAATCATTT [XGTACX_site8446]  9.66
32. TTTTTTTTTTGATGTTGTACATATATATTATATATA [XGTACX_site6377]  9.63
33. TATTTCATGATACAATGTACATGTATATATGATACC [XGTACX_site5057]  9.62
34. AATAGTATTCACAAAGTTTTATATAATAAATATAAA [GTGCAC_negctrl_site154]  9.62
35. AAATAAAATAAAATACGTACCTATTGTGCGTATTAA [XGTACX_site2912]  9.58
36. TATTCGAACAAAAATACATGCACATATGCATAATAA [TGCATGCA_site171]  9.55
37. GTTATATTCCTACAGAGTACATAAAAATGCACATCA [XGTACX_site1948]  9.54
38. TTTTCCAGTAAATATTTTTTTATAATATTTATATAT [CACACA_negctrl_site387]  9.53
39. TGTATGATAACTATAGTGCATTTGGTAATTTTTCCA  9.51
40. TTTGAAATAAGCAAATGTACATTATTATTAAATATA [XGTACX_site6158]  9.49
41. ATATATTTTTTCTTAACACACATATATAAAATAAAA [CACACA_site3500]  9.48
42. TTTTTTTTTTTTGAGGTGCATATATCAGATCAATAT  9.4
43. TTTTTTTTTTTTTTTTGTACATATTTTTAAACTATA [XGTACX_site2897]  9.23
44. TATTTTATTTATTGAAGTACATTATACAAAAATAAA [XGTACX_site4824]  9.15
45. AGCAAAAAAAAAAAAAAAAAAAAAATAATAAAAAAT [TGCATGCA_negctrl_site202]  9.13
